In publication PMC4336329 (PLoS ONE, 2015):
Among all 310,000 compounds or so, about 14,000 (4.5%) showed an effect of 50% or more. The effect is printed as a negative number. The list shows a part of the results.

molecular target: human ether-à-go-go-related gene (hERG) potassium channel (human, UniProt Q12809); test: primary screen, population patch clamp on CHO cells stably expressing hERG
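Note: peak tail current of the secondary pulse compared with the same well before compound.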

human ether-à-go-go-related gene (hERG) potassium channel, sequence (Q12809 whole entry, looked up): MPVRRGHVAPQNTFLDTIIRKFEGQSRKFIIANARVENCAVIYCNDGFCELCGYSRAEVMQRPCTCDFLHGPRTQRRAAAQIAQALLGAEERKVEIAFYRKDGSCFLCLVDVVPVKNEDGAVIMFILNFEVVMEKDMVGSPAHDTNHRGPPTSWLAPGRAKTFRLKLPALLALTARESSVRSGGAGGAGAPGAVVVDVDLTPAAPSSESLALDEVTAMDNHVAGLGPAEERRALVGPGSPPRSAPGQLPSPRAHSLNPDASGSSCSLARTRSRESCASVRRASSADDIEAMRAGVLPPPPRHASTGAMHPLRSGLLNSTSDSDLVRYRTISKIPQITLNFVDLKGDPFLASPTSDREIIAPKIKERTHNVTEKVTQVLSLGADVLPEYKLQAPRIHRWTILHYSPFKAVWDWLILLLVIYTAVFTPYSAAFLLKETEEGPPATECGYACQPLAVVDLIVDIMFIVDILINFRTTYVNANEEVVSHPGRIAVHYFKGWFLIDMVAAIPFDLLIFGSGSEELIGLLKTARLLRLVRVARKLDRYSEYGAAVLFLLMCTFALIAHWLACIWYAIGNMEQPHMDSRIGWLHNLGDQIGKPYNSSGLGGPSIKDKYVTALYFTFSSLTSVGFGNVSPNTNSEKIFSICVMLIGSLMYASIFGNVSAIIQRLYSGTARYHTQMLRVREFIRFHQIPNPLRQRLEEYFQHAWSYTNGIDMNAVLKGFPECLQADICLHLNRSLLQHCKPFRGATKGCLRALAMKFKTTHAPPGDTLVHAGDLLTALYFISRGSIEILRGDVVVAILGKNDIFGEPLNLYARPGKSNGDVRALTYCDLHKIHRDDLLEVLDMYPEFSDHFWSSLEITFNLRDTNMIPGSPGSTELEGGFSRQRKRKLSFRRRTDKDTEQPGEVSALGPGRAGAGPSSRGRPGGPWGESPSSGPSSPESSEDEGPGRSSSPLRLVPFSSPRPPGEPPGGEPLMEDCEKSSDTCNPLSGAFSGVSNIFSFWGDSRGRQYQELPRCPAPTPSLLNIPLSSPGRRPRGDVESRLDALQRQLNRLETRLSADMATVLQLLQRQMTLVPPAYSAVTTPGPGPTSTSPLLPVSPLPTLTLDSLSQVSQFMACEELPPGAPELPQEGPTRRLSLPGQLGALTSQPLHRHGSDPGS

| Structure (SMILES) | hERG current change (%, negative = inhibition) at 10uM |
| --- | --- |
| CC1CCCCC1NS(=O)(=O)c1ccc(S(=O)(=O)NCc2ccncc2)cc1 (stereo not shown) | 15% |
| COc1ccc(S(=O)(=O)N2CCOC23CCN(S(=O)(=O)c2ccc(Cl)cc2)CC3)cc1 | -6.69% |
| CC(=O)c1cccc(N(CC(=O)Nc2ccc(F)cc2)S(C)(=O)=O)c1 | -14.9% |
| COc1ccc(C(=O)NCCc2c[nH]c3ccc(OC)cc23)cc1 | 2.24% |
| COc1cc(N)c(Cl)cc1NC(=O)c1ccccc1 | 12.3% |
| CCSc1ccc(-c2cccc([N+](=O)[O-])c2)nn1 | 2.56% |
| Cc1ccc(N(C)S(=O)(=O)c2ccc3c(c2)NC(=O)C(C)S3)cc1 (stereo not shown) | 1.32% |
| COc1cc(C=O)ccc1OCc1ccc(Cl)nc1 | 14.2% |
| CCOc1ccc(NC(=O)CCNC(=O)Cn2ccc3ccccc3c2=O)cc1 | 23.2% |
| CCC1=NN2C(=N)/C(=C\c3cccn3-c3ccc(C)cc3C)C(=O)N=C2S1 | -5.33% |
| CCCC1=C(C(=O)OCC)C(c2c(C)nn(-c3ccccc3)c2Cl)C(C#N)=C(N)O1 (stereo not shown) | -16.1% |
| CC1CCC(C(=O)NC(C(=O)N2CCc3ccccc3C2)C(C)C)CC1 (stereo not shown) | 0.394% |
| CC(=O)N1CC23C=CC(CC2CC12CCCCCC2)O3 (stereo not shown) | 2.17% |
| Cc1nn(-c2ccccc2)c(Cl)c1/C=N/NC(=O)c1cccnc1 | -8.73% |
| O=C(CN1C(=O)S/C(=C\c2ccc(O)c([N+](=O)[O-])c2)C1=O)Nc1ccc(N2CCOCC2)cc1 | 12.2% |
| CC(C)C[C@@H](CO)N1CCN(Cc2ccc([N+](=O)[O-])cc2)CCC1=O | -26.5% |
| C=CCN1C(=O)c2ccc(C(=O)N(CCOC)c3c(N)n(CCCC)c(=O)[nH]c3=O)cc2C1=O | 3.88% |
| CN1CCN(c2nc3cc(C(F)(F)F)ccc3n3cccc23)CC1.O=C(O)/C=C\C(=O)O | -41.7% |
| CCNS(=O)(=O)c1ccc(NC(=S)N2CCc3ccccc32)cc1 | 22.9% |
| Cc1ccc(CNC(=O)CSc2ccsc2[N+](=O)[O-])cc1 | -4.87% |
| CCN(CC)CC(=O)Nc1ccccc1SCC(=O)Nc1ccsc1C(=O)OC | -22.7% |
| COCCN(C(=O)CCC(=O)Nc1nccs1)C(C(=O)NC(C)(C)C)c1ccc(F)cc1 (stereo not shown) | -1.98% |
| Cc1ccc(S(=O)(=O)N2CCCCC2)cc1C(=O)NCCC1=CCCCC1 | -8.73% |
| Cc1ccccc1Cn1nc(C)c(NC(=O)c2cc3n(n2)C(C(F)F)CC(C(F)F)N3)c1C (stereo not shown) | -2.7% |
| Cc1cccc(NC(=O)CSc2nc3[nH]ncc3c(=O)[nH]2)c1 | 8.61% |
| Fc1ccccc1/C=N/Nc1ncnc2nc[nH]c12 | -0.351% |
| CC1(C)CC(=O)C2=C(C1)N(c1ccc(F)cc1)C(=O)CC2c1ccccc1 (stereo not shown) | 14% |
| COc1cc(Cl)ccc1OCc1cc(C(=O)N(C)CCc2cnn(C)c2)no1 | -28% |

| Structure (SMILES) | hERG current change (%, negative = inhibition) at 10uM |
| --- | --- |
| COc1ccc(CNCCC(c2ccc(OC)cc2)c2ccccc2OC)cc1 (stereo not shown) | -74.2% |
| Cn1c(=O)n(Cc2ccccc2Cl)c(=O)c2c1[nH]c(=S)n2C | 17.3% |
| COc1nc(NCC2CCCO2)nc(N2CC3CC(C2)c2cccc(=O)n2C3)n1 (stereo not shown) | 5.37% |
| CCCn1c(=N)c(C#N)cc2c(=O)n3cccc(C)c3nc21 | -53% |
| CCOC(=O)CCc1c(C)c2ccc(O)cc2oc1=O | 2.92% |
| COc1ccc(CC(=O)c2ccccc2C(=O)O)cc1 | 6.93% |
| O=C(CCS(=O)(=O)c1ccc(Br)cc1)N1CCN(c2ccccc2Cl)CC1 | -18.5% |
| CCc1cc(C(=O)N2CCCC(CCC(=O)NCc3cccc(OC)c3)C2)no1 (stereo not shown) | 2.48% |
| COc1ccc(N2C(=O)Cc3c2nc(N)c(C#N)c3N)cc1 | 14.4% |
| CCS(=O)(=O)c1ccc2oc(SCC(=O)Nc3ccc(OC)cc3OC)nc2c1 | 26.6% |
| CN(CC(=O)Nc1cccc(F)c1)C(=O)c1ccc2c(c1)OCCO2 | 7.95% |
| COc1cccc(CN(C)C(=O)Cc2c[nH]c3ccccc23)c1OC | 16.7% |
| Cc1n[nH]c(=S)n1/N=C/c1ccc(OCc2ccc(Cl)cc2Cl)cc1 | 11.1% |
| Cc1cccc(C(=O)NCC(c2ccc(F)cc2)N2CCOCC2)c1 (stereo not shown) | -2.49% |
| CC(=C/c1ccccc1)/C=C1/SC(N2CCOCC2)=NC1=O | -20.1% |
| CCOC(=O)C1=C(C)NC(=O)NC1c1cc2c(cc1Br)OCO2 (stereo not shown) | 6.32% |
| O=C(O)CCCNC(=O)CCCn1nnc2ccccc2c1=O | 10.8% |
| CNC(=O)c1cc(C(=O)c2ccc(Cl)cc2)c(Br)[nH]1 | 7.47% |
| Cc1nn(CC(=O)Nc2ccc(F)cc2)c(=O)c2ccccc12 | 4.75% |
| Cc1ccc(S(=O)(=O)N2CCOCC2)cc1C(=O)NC(=S)N1CC(C)CC(C)C1 (stereo not shown) | -1.25% |
| CC(C)(C)c1cc(-n2ccnc2)n2ncc(-c3ccc(Cl)cc3)c2n1 | 3.26% |
| CCN1C(=O)/C(=C2/C=Cc3cc(C)ccc3N2CC)N(C)C1=S | -54.8% |
| C=CCN1C(=O)N(c2ccc(Cl)cc2)C(=O)C1CC(=O)Nc1ccc(F)cc1 (stereo not shown) | -30.3% |
| CCOC(=O)/C(C#N)=C1/C=CN(c2ccccc2)C=N1 | -1.94% |
| Cc1cccc(-c2nc(S(=O)(=O)c3ccc(F)cc3)c(NCCCN3CCOCC3)o2)c1 | -69.4% |
| CC1(C)CC2CC(C)(CN2S(=O)(=O)c2ccc(C(=O)Nc3cccc(S(=O)(=O)N4CCOCC4)c3)cc2)C1 (stereo not shown) | 4.79% |
| C[C@@H](CN1C2=NC[C@H](C)N2C[C@H]1Cc1ccc(O)cc1)NC(=O)CCC1CCCCC1 | -11.9% |
